The chains are these.
B1: GBRAP_14_3841 (protein)
chain: SEELRRLLLEVVRRTVEAIRELAPEEYEEKVEEIERRLEAAVDEGLKTGDLDAAEAALIETAEATVREEFADLPETERAALIAEAVDELIEGLEEVEEKL
B2: GBRAP_95_7030 (protein)
chain: EDDRLAAESLVEVLETYIDLGDEEKAREAAERLVKLMKEEGFPELPKGISLEAAKIIVEKAIETLNEEDAEKLFEVVLKALEKEEDKEELRKHYEELKKK
B3: GBRAP_160_4057 (protein)
chain: SEKKEELKRLVREAEERTLEVIDEEGVEAARVVAAGEFGEVIMEAASDPEASDELVDRLAEIRDRLVAELAAAADASKEEQKEIVRRAAEEAIRAIEELY
B4: GBRAP_125_3139 (protein)
chain: MKAELLALAEALARALGYSEEEIAELRRLGEAHDPAQTIIAILLAEGFEELAELAREVLPKLTPEEIAELRALAESLRDKSREELRAALLAKLKELKAKQ
B5: GBRAP_14_3849 (protein)
chain: VEKLVEAVKKTAESLKKFAEEVLPEHAEEVKKKIDELAEKLIEKIKKEKLNKEEVEELADEFAEELGKYLKEKGYASDTEIAAFKAHVLSDILLELEKIE
B6: GBRAP_11_2815 (protein)
chain: MKEETKKIIELAERAAELAREYLEEAPGDEELLRELLRLTRELLELVKKNLDKGFVSLAEAALETVEEALRDPATREAYVANARGALETLKANIEEEADE
B7: GBRAP_125_3027 (protein)
chain: SMEETAANLAKIARALGFSEGDVAELVANALAHGIKGAMIALALALGDEELADLLERLTEEEVARVVAEAAAEIEANPDLTPEEVKALLLELARRAVAES
B8: GBRAP_125_3133 (protein)
chain: MTEEILEDLAIVARALGFSDDDVEEAVEIARKHGVKGTLYAIMLALGYEEVADLVEKITEEEAIEVLREVAARIREDPSLTPEEVVALIKELLKEKIAKK
B9: GBRAP_160_4072 (protein)
chain: SESLEKLKKKVKELAEEAKELIEGQSPEERLVIVEVMLGEIVLEAESNEEVSDELEDKIAEIADETVAKVRANPEMSEEELKELIEETEEKILKLIEEEE
B10: GBRAP_39_5718 (protein)
chain: EEEEEAEEIFSYYEARGAKLMYERGISLEEAYEELYAKALEIAKDDPELKAALEELKELAEKAGDEAKLAATGLMEDLVNGEDKEEILEDGKLLIKYLKS
B11: GBRAP_128_3294 (protein)
chain: SAEELRREYEERLRSLLGLSPEELREATLELIREAAKEGLEAVELFVEALEELLPEFSVEQLEAIAEALREARKEVDPETAALLADAESAALLEAEEKEE
B12: GBRAP_160_4253 (protein)
chain: SEKLKEIAEELREEVEETLAELPNLTPEELAAALAGEVGAAIMELIELGLVTDEQEDELIALEDEMVAVALNRPNLTIEEVKARIRALVDEIVAVLEKAA
B13: GBRAP_160_4706 (protein)
chain: SEVAEELIEYVDEEFERLKEEIVGESAEQRATLARGAFGEIIMELVENPEVSDELEDEVDEIGDELVATILANPDLTDEEVRALIDEAREKIKEAIKKKV
B14: GBRAP_80_6766 (protein)
chain: MEELARAVEEIAEAGPEEVPELIERARELLLKAGVSEEDAERFAEALRTIAEARPVIGEEEFRRRLAEVREEILAGDLEGAIAEAEVAAGEALLEKEEKE
B15: GBRAP_53_6386 (protein)
chain: KEEEIEKLIKEYRELLKKIEKAKPEEAVKLGKEAKEVLVELAKLGAPEEVLEELTKEFAKLVKKHPELEPIALELAKELAALGYENASGILAEELVEELE
B16: GBRAP_128_3241 (protein)
chain: MPEELKKEVDELLEKVINGDVEEAREATEKLVELMGTVDDETAEEIAEKLIEALKELTAEKLEAVADTLLANRGKLDPEKQVLAYDVAIEALELAEELEE
B17: GBRAP_39_5650 (protein)
chain: EEEEENELLFDYYLAKAEGYMVEKGISEEELIAEGKEILEEIAKEHPEIAELVKKLLEKMENGDEETKLAATGIALDYKEGLPIEEIKEHIEKFLKYVEK
B18: GBRAP_52_6057 (protein)
chain: MKEELEATAEQIAEAIAAGDMEGALALAEELIKTKSVEEITETLELAAERVAGLGEAEHERFVDLLDEIHDLMIEAGISEEDADIVVGNAEAALAKAVAA
B19: GBRAP_125_2969 (protein)
chain: MEEELLEDLGLIARALGLSEEEVEEAVRLAREHSVRGTLYAIMAALGYDELAELVAKITEEEAKEVLRRVAAWIRAHPDATPEEVVAKMKELLEEAIAKR

Over roughly 4,500 sequences, “median log2 fold change of GCK-ALFA target abundance (FLAG IP / Myc IP barcode read proportion)” has its median near 0.078; the lowest 2% begin near -0.6. Some of the results follow.

The values that follow come from the supplement of paper PMC12632987.

Chain of GABARAP, O95166 (O95166 whole entry, the tested form may be a part): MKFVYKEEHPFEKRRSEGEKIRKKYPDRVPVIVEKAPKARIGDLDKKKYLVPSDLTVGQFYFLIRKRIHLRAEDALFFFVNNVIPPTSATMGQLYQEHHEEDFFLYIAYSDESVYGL

In this experiment the target is GABARAP, O95166. Nature of the experiment: median log2 fold change of GCK-ALFA target abundance (FLAG IP / Myc IP barcode read proportion) (log2 ratio); each designed protein is fused to an ALFA-tag nanobody in HEK293 cells to bring the named protein to FLAG-tagged glucokinase (GCK); Myc marks an untargeted standard; higher = target protein stabilised (more abundant). The conditions noted are these: target protein: 3xFLAG-MCP-GCK-ALFA reporter; HEK293 landing pad (RPLP). In short, it runs like this:
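Binders fused to an ALFA nanobody were recombined as a library into HEK293 landing-pad cells, which were induced with 2 μg mL^−1 doxycycline and then transfected to express a FLAG-tagged target and a Myc-tagged standard. After 48 h, circular RNA barcodes recovered by anti-FLAG and anti-Myc immunoprecipitation of lysates were reverse transcribed, amplified and sequenced. Each binder's target abundance is the median log2 ratio of FLAG to Myc barcode read proportions, from barcodes present at ≥10^−7 in both replicates, binders carrying ≥3 barcodes per replicate, a 10^−6 pseudocount and pooled replicates.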
Turning to B1, the “median log2 fold change” value was 0.0649.

Turning to B2, the “median log2 fold change” value came out at 0.199.

Take B3: the “median log2 fold change” value was determined as 0.193.

On to B4, for which the “median log2 fold change” value is 0.207.

As for B5, the “median log2 fold change” value was 0.383.

Turning to B6, the “median log2 fold change” value is 0.347.

As to B7, the “median log2 fold change” value amounted to 0.134.

For the molecule B8, the “median log2 fold change” value was -0.744.

As for B9, the “median log2 fold change” value turned out to be 0.193.

For B10, the “median log2 fold change” value was determined as 0.108.

Turning to B11, the “median log2 fold change” value was found to be 0.0897.

On to B12, for which the “median log2 fold change” value was -0.073.

Regarding B13, the “median log2 fold change” value is -0.293.

Turning to B14, the “median log2 fold change” value turned out to be 0.155.

B15: the “median log2 fold change” value came out at 0.205.

For B16, the “median log2 fold change” value was determined as 0.0281.

As for B17, the “median log2 fold change” value worked out at 0.38.

For B18, the “median log2 fold change” value stood at 0.0687.

With B19, the “median log2 fold change” value was -0.375.
